The campaign covered roughly 310,000 compounds. About 2,200 (0.71%) showed an effect of 50% or more. The effect is printed as a negative number. The list shows a part of the results.

This experiment deals with human ether-à-go-go-related gene (hERG) potassium channel (human, UniProt Q12809). Briefly: primary screen, population patch clamp on CHO cells stably expressing hERG.
human ether-à-go-go-related gene (hERG) potassium channel, sequence (Q12809 whole entry, looked up): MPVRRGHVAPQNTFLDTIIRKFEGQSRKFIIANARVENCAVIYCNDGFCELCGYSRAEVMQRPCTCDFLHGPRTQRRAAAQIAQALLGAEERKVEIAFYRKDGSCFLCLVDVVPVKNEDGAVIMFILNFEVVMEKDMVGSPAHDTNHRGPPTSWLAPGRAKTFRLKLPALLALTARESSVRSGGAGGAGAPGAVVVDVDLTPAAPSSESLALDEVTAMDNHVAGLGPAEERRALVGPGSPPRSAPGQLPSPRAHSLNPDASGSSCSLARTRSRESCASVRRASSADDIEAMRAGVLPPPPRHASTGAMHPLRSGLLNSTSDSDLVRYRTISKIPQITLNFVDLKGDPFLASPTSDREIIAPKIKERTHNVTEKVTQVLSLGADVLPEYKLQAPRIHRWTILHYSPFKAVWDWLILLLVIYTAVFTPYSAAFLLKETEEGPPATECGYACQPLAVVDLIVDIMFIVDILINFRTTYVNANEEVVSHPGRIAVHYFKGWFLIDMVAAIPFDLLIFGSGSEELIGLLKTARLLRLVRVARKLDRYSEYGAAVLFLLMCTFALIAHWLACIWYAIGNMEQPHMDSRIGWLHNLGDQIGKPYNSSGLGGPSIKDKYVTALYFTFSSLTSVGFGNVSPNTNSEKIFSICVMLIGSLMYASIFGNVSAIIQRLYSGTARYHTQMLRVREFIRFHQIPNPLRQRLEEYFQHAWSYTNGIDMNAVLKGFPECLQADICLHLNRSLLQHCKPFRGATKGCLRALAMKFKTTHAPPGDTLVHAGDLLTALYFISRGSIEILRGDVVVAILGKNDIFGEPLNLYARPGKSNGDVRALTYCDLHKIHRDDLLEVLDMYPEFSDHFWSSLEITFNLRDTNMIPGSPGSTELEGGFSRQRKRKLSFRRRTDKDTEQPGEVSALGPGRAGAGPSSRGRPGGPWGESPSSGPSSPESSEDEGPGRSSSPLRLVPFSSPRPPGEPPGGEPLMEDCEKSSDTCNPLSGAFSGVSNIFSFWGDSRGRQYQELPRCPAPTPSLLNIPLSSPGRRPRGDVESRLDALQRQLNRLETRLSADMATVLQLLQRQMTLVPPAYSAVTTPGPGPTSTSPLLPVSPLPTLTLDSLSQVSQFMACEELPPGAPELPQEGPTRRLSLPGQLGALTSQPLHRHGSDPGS
Turning to `CC(C)CNC(=S)NC(=O)c1ccc(F)cc1`, the “hERG current change (%, negative = inhibition) at 1uM” value came to 6.66%. For the compound `COc1ccc(-c2noc(C(C)NC(=O)c3ccco3)n2)cc1OC` (stereo not shown), the “hERG current change (%, negative = inhibition) at 1uM” value came to 11.1%. As to `C=CCn1c(C)cc(C(=O)CSc2ccc(NC(C)=O)cc2)c1C`, the “hERG current change (%, negative = inhibition) at 1uM” value is 6.47%. On to `Cc1cccc(Nc2nc(C)nc3c2oc2ccccc23)c1.Cl`, for which the “hERG current change (%, negative = inhibition) at 1uM” value stood at 5.38%. As for `O=C(Nc1ccccc1)N(Cc1ccccc1)C1=NCCS1`, the “hERG current change (%, negative = inhibition) at 1uM” value was found to be 8.04%. The value for `CCOC(=O)C1CCN(c2cc(=O)n(C3CCCCC3)c(=O)[nH]2)CC1` was 8.28%; that for `O=C(CN(C(=O)CCC(=O)Nc1nccs1)c1cccc(F)c1)NCc1ccc2c(c1)OCO2` was 12.6%; that for `Cc1cc(C)c(S(=O)(=O)Nc2ccc3[nH]c(=O)[nH]c3c2)c(C)c1` was 9.78%. For the compound `Cc1ccc(NC2SC(=O)N(Cc3cccc(C(=O)O)c3)C2=O)c(C)c1` (stereo not shown), the “hERG current change (%, negative = inhibition) at 1uM” value was 11.1%. As for `COc1ccc(-c2csc3nc(C)nc(N4CCN(C(C)=O)CC4)c23)cc1OC`, the “hERG current change (%, negative = inhibition) at 1uM” value is 3.19%. Turning to `CCOc1nc2cnccc2n(CC(=O)Nc2cccc(C)c2)c1=O`, the “hERG current change (%, negative = inhibition) at 1uM” value stood at 11.6%. The value for `O=C(CCS(=O)(=O)c1ccccc1Cl)NCCC1=CCCCC1` was 1.55%; that for `Cc1cc(NS(=O)(=O)c2ccc(NC(=O)CCCOc3cccc(C)c3C)cc2)no1` was 1.65%.

Consider `Cc1nc2nc(SCC(=O)NCc3ccco3)nn2c(C)c1Cc1c(F)cccc1Cl`, for which the “hERG current change (%, negative = inhibition) at 1uM” value was -6.28%.

With `CCCn1cnc2cc(NCc3cccc(OC)c3O)ccc21`, the “hERG current change (%, negative = inhibition) at 1uM” value came to 4.5%. Regarding `Nn1c(SCC(=O)N2CCOCC2)nnc1-c1ccco1`, the “hERG current change (%, negative = inhibition) at 1uM” value was determined as 9.16%. For `O=C(CN1C(=O)c2cccc3cccc1c23)Nc1ccc(S(=O)(=O)Nc2nccs2)cc1`, the “hERG current change (%, negative = inhibition) at 1uM” value came out at 5.66%. Consider `COc1ccccc1C1=NOC(C)(c2sc(-c3ccccc3)nc2C)C1` (stereo not shown), for which the “hERG current change (%, negative = inhibition) at 1uM” value is 17.2%. Regarding `CCc1ccc(NC(=O)CCC(=O)c2ccc(C)cc2)cc1`, the “hERG current change (%, negative = inhibition) at 1uM” value was found to be 18.1%. Regarding `O=C(NNC(=O)c1ccccc1[N+](=O)[O-])c1csc(N2CCOCC2)n1`, the “hERG current change (%, negative = inhibition) at 1uM” value is recorded as 0.109%. In the case of `Cc1ccc(S(=O)(=O)N2CCCC2)cc1C(=O)NCC(C)(C)N1CCOCC1`, the “hERG current change (%, negative = inhibition) at 1uM” value turned out to be 17.2%. Turning to `CC1CN(c2ncc(/C=N/NC(=O)c3ccccc3O)s2)CC(C)O1` (stereo not shown), the “hERG current change (%, negative = inhibition) at 1uM” value was 13.5%. `O=C1C=C(O)CC(c2cccs2)C1` (stereo not shown): the “hERG current change (%, negative = inhibition) at 1uM” value worked out at 15.4%. As for `COc1ccc(CN(Cc2cc3cc(OC)c(OC)cc3[nH]c2=O)C(=O)NC2CCCCC2)cc1`, the “hERG current change (%, negative = inhibition) at 1uM” value was found to be 8.68%. On to `CCc1nnc(NC(=O)Cc2ccc(Br)cc2)s1`, for which the “hERG current change (%, negative = inhibition) at 1uM” value is recorded as 2.38%.

Regarding `O=c1[nH]c2ccc(Cl)cc2c(-c2ccccc2)c1CN1CCOCC1`, the “hERG current change (%, negative = inhibition) at 1uM” value is listed as 0.381%. Turning to `c1csc(-c2nn[nH]n2)c1`, the “hERG current change (%, negative = inhibition) at 1uM” value is on record as 4.96%.

Turning to `COC(=O)c1scc(C)c1-n1ccc(C(=O)C(=O)N(C)C)c1`, the “hERG current change (%, negative = inhibition) at 1uM” value was 9.29%. For the compound `Cc1ncoc1C(=O)N1CCCC(N2CCN(c3ccccc3F)CC2)C1` (stereo not shown), the “hERG current change (%, negative = inhibition) at 1uM” value was determined as 11.3%.

For the compound `COc1ccccc1NC(=S)N(Cc1ccco1)Cc1cc2cccc(C)c2[nH]c1=O`, the “hERG current change (%, negative = inhibition) at 1uM” value was 5.27%. As for `Cc1ccc(C(=O)Nn2cnnc2)cc1S(=O)(=O)N1CCOCC1`, the “hERG current change (%, negative = inhibition) at 1uM” value is 3.09%. The value for `O=C1N=C(N2CCCC2)S/C1=C\c1cn[nH]c1-c1ccccc1` was 5.58%. In the case of `CNC(=O)CCn1nc(-c2ccc(C)cc2)c2ccccc2c1=O`, the “hERG current change (%, negative = inhibition) at 1uM” value is listed as 10.5%. The value for `CCc1nc(SCC(=O)NNC(=O)C2CCCCC2)c2ccccc2n1` was 5.44%; that for `COc1ccc(CN2CCN(Cc3ccccc3)CC2)c(OC)c1` was -43.8%. Turning to `Cc1ccc(-n2nnnc2-c2cccnc2)cc1`, the “hERG current change (%, negative = inhibition) at 1uM” value came out at 10.9%. Regarding `CCCOC(=O)c1ccc(NC(=O)CC(C)(C)C)cc1`, the “hERG current change (%, negative = inhibition) at 1uM” value was found to be 6.8%. On to `Cc1cc(C)c(NC(=O)/C=C\C(=O)O)c(Cl)c1`, for which the “hERG current change (%, negative = inhibition) at 1uM” value was 0.0953%. In the case of `Cc1onc(-c2ccccc2Cl)c1C(=O)Nc1nn[nH]n1`, the “hERG current change (%, negative = inhibition) at 1uM” value is reported as 16.1%. On to `O=C(COC(=O)CNC(=O)c1ccco1)Nc1ccc(Cl)cn1`, for which the “hERG current change (%, negative = inhibition) at 1uM” value was -5.22%. The value for `O=C(c1cccs1)n1nc(-c2ccccc2)nc1NCc1ccco1` was -4.36%; that for `Cc1ccc(Oc2nc3c(c(=O)n(C)c(=O)n3C)n2C)cc1C` was 7.21%. Consider `CC[C@@]1(c2cccc(C)c2)C(=O)N(C(=O)OC)N1C(=O)OC`, for which the “hERG current change (%, negative = inhibition) at 1uM” value amounted to 19.2%. The value for `Nc1ccc(S(=O)(=O)Nc2nccc(/C=C/c3ccc(Br)s3)n2)cc1` was 14.7%; that for `COCCn1ccc2c(OCC(=O)Nc3cccc(NC(C)=O)c3)cccc2c1=O` was 12.3%. The value for `O=C(COc1cccc2ccccc12)Nc1nc2ccccc2[nH]1` was 3.88%; that for `O=C(COc1ccc2c(c1)OCO2)Nc1ccccc1F` was 5.62%. Turning to `Cc1nc(-c2ccccc2)sc1C1(C)CC(c2c(Cl)cccc2Cl)=NO1` (stereo not shown), the “hERG current change (%, negative = inhibition) at 1uM” value was 10.7%.

As for `CCOC(=O)C1CCN(Cc2nc3ccccc3c(=O)n2-c2ccc(F)cc2)CC1`, the “hERG current change (%, negative = inhibition) at 1uM” value is -3.3%. The value for `COc1ccc(NC(=O)C(NC(C)=O)C(=O)NCc2ccccc2OC)cc1` (stereo not shown) was 8.99%. The value for `CCOC(=O)C1CCCN(Cc2nc(N)nc(Nc3ccccc3OC)n2)C1` (stereo not shown) was -53.2%; that for `COc1cccc(CN2CCCC(C(=O)N3CCCCC3)C2)c1OC.O=C(O)C(=O)O` (stereo not shown) was -8.26%. In the case of `Cc1noc(C)c1C(=O)NCCCN1CCCC1=O`, the “hERG current change (%, negative = inhibition) at 1uM” value amounted to 9.97%. As to `O=C(CCSCc1cccc(Cl)c1)NCCc1ccc(Cl)cc1`, the “hERG current change (%, negative = inhibition) at 1uM” value was found to be 15.9%.

Take `CC(NC(=O)NC(=O)c1cccc([N+](=O)[O-])c1)C1CC1` (stereo not shown): the “hERG current change (%, negative = inhibition) at 1uM” value was -1.6%. As to `COc1cc(C(c2c(C)[nH][nH]c2=O)c2c(C)[nH][nH]c2=O)cc(Br)c1OC`, the “hERG current change (%, negative = inhibition) at 1uM” value is 11.3%. As for `Br.N=c1c2c(n(Cc3ccc(Br)cc3)c3c1CCC3)CCCC2`, the “hERG current change (%, negative = inhibition) at 1uM” value is -6.82%.

With `O=C(/C=C/c1ccco1)Nc1ccc(Oc2ccccc2)cc1`, the “hERG current change (%, negative = inhibition) at 1uM” value is on record as -6.59%. For the compound `O=C(Nc1cc(Cl)ccc1N1CCOCC1)c1ccco1`, the “hERG current change (%, negative = inhibition) at 1uM” value was found to be 3.21%.

Take `CCCn1c2ccc(F)cc2c2nnc(NN)nc21`: the “hERG current change (%, negative = inhibition) at 1uM” value is 10.9%. Consider `Cc1[nH]n(-c2ccccc2)c(=O)c1-c1cccc(Cl)c1`, for which the “hERG current change (%, negative = inhibition) at 1uM” value was 23.3%.

For `O=C1CN(c2nnnn2-c2ccccc2)CCN1`, the “hERG current change (%, negative = inhibition) at 1uM” value was found to be 6.77%.

On to `O=C1CC(Nc2ccccc2)C(=O)N1Cc1ccccc1` (stereo not shown), for which the “hERG current change (%, negative = inhibition) at 1uM” value came to 4.67%. `COc1ccc([N+](=O)[O-])cc1NC(=O)C(C)N1CCN(C(=O)c2ccco2)CC1` (stereo not shown): the “hERG current change (%, negative = inhibition) at 1uM” value came to 8.81%. On to `Cc1cccc(N2CCN(c3ccc(NC(=O)/C=C(/C(=O)O)c4ccccc4)cc3)CC2)c1`, for which the “hERG current change (%, negative = inhibition) at 1uM” value was 11.6%. `O=C(OCc1ccccc1Cl)c1ccc(-n2cnnc2)cc1`: the “hERG current change (%, negative = inhibition) at 1uM” value came out at 7.37%. On to `Cn1nc(C(C)(C)C)c([N+](=O)[O-])c1C(=O)NCCO`, for which the “hERG current change (%, negative = inhibition) at 1uM” value came to 12.6%. The value for `CCCn1cc([C@@H]2C[C@H]3CN(Cc4cccc(Cl)c4)C(=O)[C@]34CCCN24)c(C)n1` was -42.3%; that for `CCCCN(C)C(=O)C1CCN(C/C(C)=C/c2ccccc2)CC1.O=C(O)C(=O)O` was -54.3%; that for `O=C(c1ccco1)N1CCN(Cc2cc(=O)c(OCc3ccccc3)co2)CC1` was 8.42%. The value for `O=C(O)C1CCC(CNS(=O)(=O)c2ccc(Cl)cc2)CC1` (stereo not shown) was 22.3%; that for `CSc1nnc(C)c(=O)n1COC(=O)COc1ccc(Cl)cc1` was 15%. Turning to `O=C1OC(c2ccc(F)cc2)=C/C1=C\c1ccc(O)cc1`, the “hERG current change (%, negative = inhibition) at 1uM” value worked out at 13.6%. The value for `CSc1ncccc1C(=O)N1CCN(S(=O)(=O)c2ccc(F)cc2)CC1` was 10.2%; that for `Cc1ccc(Cl)cc1N1C(=O)CC(C)(C)CC1=O` was 14.6%.

For the compound `CC(C)c1nnc(NC(=O)CCN2C(=O)c3ccccc3C2=O)s1`, the “hERG current change (%, negative = inhibition) at 1uM” value is listed as 13.7%. The value for `C1=CC2CC1CC2CN1CCN(Cc2ccccc2)CC1.O=C(O)C(=O)O` (stereo not shown) was 10.4%; that for `COc1ccc(OC)c(C2=NOC(C(=O)NCc3ccccn3)C2)c1` (stereo not shown) was 6.59%. With `O=C(Cn1cc2c(n1)CCCC2)NC1CCN(Cc2ccccc2)CC1`, the “hERG current change (%, negative = inhibition) at 1uM” value was 3.9%.

Take `Cc1nc(/C(=N/O)C(N)=O)cs1`: the “hERG current change (%, negative = inhibition) at 1uM” value amounted to 12.7%. The value for `CCCCOc1ccccc1Cn1c(=O)oc2ccc(C)cc21` was 6.97%; that for `COc1ccc(Br)cc1CNCCSc1nnnn1C.Cl` was -2.34%; that for `CCOC(=O)CNC(c1ccccc1)c1cc(Br)ccc1NC(C)=O` (stereo not shown) was -1.51%. Consider `COc1ccc(CN2C(=O)C(O)(CC(=O)c3ccc4c(c3)OCO4)c3ccccc32)cc1OC` (stereo not shown), for which the “hERG current change (%, negative = inhibition) at 1uM” value is -6.51%. `CCCN1CNc2c(c(=O)[nH]c(=S)n2-c2ccc(Cl)cc2)C1`: the “hERG current change (%, negative = inhibition) at 1uM” value came to 1.74%. Consider `Cc1cccc(-n2nnnc2SCC(=O)NCCN2C(=O)CSC2=O)c1`, for which the “hERG current change (%, negative = inhibition) at 1uM” value was -5.57%. The value for `O=C(NCC(=O)N1CCN(S(=O)(=O)c2cccs2)CC1)c1ccc(Cl)cc1` was -11.6%. The value for `O=CN(c1ccccc1)c1ccc2ccccc2c1` was 6.97%; that for `CC(=O)c1cc(NC(=O)c2ccccc2)c(=O)oc1/C=C/N(C)C` was -4.92%. The value for `COc1ccc(C2=CSC3=NCCN23)cc1[N+](=O)[O-]` was 2.48%. Turning to `O=C(CCN1CCc2ccccc2C1)Nc1cccc(F)c1`, the “hERG current change (%, negative = inhibition) at 1uM” value is recorded as -1.84%.

(Values after PMC4336329 (PLoS ONE, 2015).)
